Out of some 320,000 compounds screened, about 200 (0.062%) were called active. Inconclusive means that the source gave no clear call. Such entries were picked first, then a sample of the others. Calls follow the shape of the dose curve; as a rule, active = well fitted activation curve with a large enough effect; inconclusive = small, poorly fitted or top-dose-only effect; inactive = no such curve, though single readings can be large or run the other way. No potency is given beside an inconclusive call; the fits are too rough.
Test: qHTS assay for re-activators of p53 using a Luc reporter; also: nearly all actives have a fitted effect of over 45% in size
Details: H1299 p53-A138V BP100-luciferase reporter, luminescence, 24 h; series mostly up to 92.2 µM
How it was run: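 H1299 (p53-null), stable ts p53-A138V + BP100-Luc; 1000 cells/well, Opti-MEM/10% FBS; cpd 4 pt, 1:5; 24 h, 37 deg C, 5% CO2; detection reagent 10 min RT; luminescence.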
Potency is read from the fitted curve at half-maximal effect; tags tell the direction and shape of the fitted curve.

Compound | Potency
CCn1c(SCC(=O)c2ccccc2)nnc1-c1cccs1 | inconclusive [activator, single point]
Cc1ccc(Cn2nnc3c(=O)[nH]c(C4CCN(S(=O)(=O)Cc5ccccc5)CC4)nc32)cc1 | inconclusive [activator, single point]
C/C(=N\NC(=O)c1ccccc1)c1ccc(C)c([N+](=O)[O-])c1 | inconclusive [activator, partial curve, poor fit]
Cc1ccccc1NC(=O)c1ccccc1O | inconclusive [activator, partial curve, poor fit]
CN(C)c1ccc(N=Nc2ccccc2C(=O)OCC(=O)N(C)c2ccccc2)cc1 | inconclusive [activator, partial curve, poor fit]
CC(C(=O)OCn1nnc2ccccc2c1=O)N1C(=O)c2ccccc2C1=O (stereo unspecified) | inconclusive [activator, single point]
CNS(=O)(=O)c1cccc(C(=O)OCC(=O)c2cc(C)n(CC3CCCO3)c2C)c1 (stereo unspecified) | inconclusive [activator, full curve, poor fit]
COc1cc(/C=C(\C#N)C(=O)NC2CCCCC2)ccc1OCc1ccc(C(=O)O)cc1 | inconclusive [activator, partial curve, poor fit]
COc1ccccc1C(=O)Nc1ccc(Oc2ncnc3sc(-c4ccccc4)cc23)cc1 | inconclusive [activator, partial curve, poor fit]
COc1ccc(C(=O)Sc2ccc(C)cc2)cc1OC | inconclusive [activator, partial curve, poor fit]
COc1cc(-c2nnn(CC(=O)N3CCOCC3)n2)cc(OC)c1OC | inconclusive [activator, single point]
Cc1ccc(-c2nc(-c3nccc4ccccc34)oc2-c2ccccc2)cc1 | inconclusive [activator, partial curve, poor fit]
CCOCCCN1CN(Cc2ccccc2)CNC1=S | inactive
COc1cc(/C=C2\SC(=S)N(CCC(=O)N3CCN(C)CC3)C2=O)cc(OC)c1OC | inconclusive [activator, partial curve, poor fit]
CN(C(=O)CCN1C(=O)/C(=C/c2ccccc2F)SC1=S)C1CCS(=O)(=O)C1 (stereo unspecified) | inconclusive [activator, partial curve, poor fit]
Cc1ccc(O)c(-c2cc(-c3cccc(Br)c3)n[nH]2)c1 | inactive
CCc1cc(C=NC2CCCCC2)c(O)s1 | inconclusive [activator, partial curve, poor fit]
Cc1ccc(C)c(OCC(=O)O/N=C(\N)c2ccccn2)c1 | inconclusive [activator, partial curve, poor fit]
Cc1cc2nn(-c3cccc4ccccc34)nc2cc1N | inconclusive [activator, full curve, poor fit]
C/C(=N\NC(=O)c1cc(C)nc2ccccc12)c1ccccn1 | inconclusive [activator, partial curve, poor fit]
N/C(CS(=O)(=O)c1ccccn1)=N\OC(=O)c1ccccc1Cl | inconclusive [activator, partial curve, poor fit]

Compound | Potency
S=c1[nH]nc(-c2ccc3ccccc3n2)n1-c1ccccc1 | inactive
O=C(CCc1ccccc1)NCCC1=CCCCC1 | inconclusive [activator, single point]
Fc1ccccc1Cn1nnc(-c2ccc3c(c2)OCO3)n1 | inconclusive [activator, partial curve, poor fit]
O=C1/C(=C\c2cc([N+](=O)[O-])ccc2O)SC(=S)N1Cc1ccc(Cl)cc1 | inactive
C/C(=N\NC(=O)c1ccco1)c1cc2ccccc2o1 | inconclusive [activator, full curve, poor fit]
Cc1sc2nc(SCC(=O)NCCO)n(C)c(=O)c2c1C | inconclusive [activator, partial curve, poor fit]
CCSc1nnc(NC(=O)CSC2=NCCS2)s1 | inconclusive [activator, single point]
Cc1cc(=O)oc2cc(OCc3cc4c(cc3Cl)OCO4)ccc12 | inactive
Brc1c(-c2ccccc2)nc2n1Cc1ccccc1-2 | inconclusive [activator, full curve]
CSc1ccccc1NC(=O)COc1ccc(Cl)cc1C | inconclusive [activator, full curve, poor fit]
CN1CCN(/N=C/c2ccc(Cl)c(Cl)c2)CC1 | inconclusive [activator, full curve, poor fit]
Fc1ccc(NCc2cn3ccccc3n2)cc1 | inconclusive [activator, partial curve, poor fit]
Cc1ccc(C(=O)NC2CCC(C)CC2)s1 (stereo unspecified) | inconclusive [activator, full curve, poor fit]
COC1CCN(C(=O)C2CCC(=O)N(C3CCCCCC3)C2)CC1 (stereo unspecified) | inconclusive [activator, partial curve, poor fit]
Oc1ccc(Cl)cc1-c1cc(-c2ccccc2)n[nH]1 | inconclusive [activator, single point]
CC(c1ccccc1)C(CC(=O)O)C(=O)Nc1ccc(Cl)c(Cl)c1 (stereo unspecified) | inconclusive [activator, single point]
CC(C)(C)C(C(=O)Oc1ccccc1)c1ccccc1 (stereo unspecified) | inactive
COc1ccccc1/C=C/c1nc(C#N)c(N(C)C)o1 | inconclusive [activator, partial curve, poor fit]
NC(=O)C1CCN(C(=O)c2cc3c(s2)CCCCC3)CC1 | inconclusive [activator, partial curve, poor fit]
C=CCNc1oc(-c2ccc(OC)cc2)nc1C#N | inactive

— PubChem BioAssay AID504706 (National Center for Advancing Translational Sciences (NCATS), 2011)
